Assay results from PubChem BioAssay AID1745845 (National Center for Advancing Translational Sciences (NCATS), 2022).
About 2,600 (0.72%) of roughly 360,000 compounds were called active. The shares of active, inactive and inconclusive entries below differ from those in the screen. The call rests on the fitted dose curve; in most records, active means well fitted inhibition curve with a large enough effect; inconclusive means small, poorly fitted or top-dose-only effect; inactive means no such curve, though single readings can be large or run the other way. Where the call is inconclusive, the potency comes from a doubtful curve fit.

Test: Primary qHTS for Inhibitors of ATXN expression; further: nearly all actives have a fitted effect of over 55% in size
Conditions: HEK-293 ATXN2-luciferase reporter, luminescence, 24 h; activity change, negative = inhibition: at 57 µM (top of the series)
Outline: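 qHTS (up to 57 uM final) was run with 24 h compound exposure of reporter cells at 37 °C. Each well was multiplexed: SteadyGlo luminescence measured ATXN2-luciferase expression after a fluorogenic Gly-Phe-AFC viability readout (25 uM final).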
On the % scale 0 is the no-effect control and ±100 the full control effect; potency means the concentration at half of the fitted maximal effect; tags describe the fitted curve by direction and shape.

SMILES | Potency | activity change, negative = inhibition
CCOC(=O)c1ccc(N2C(=O)c3n[nH]c(-c4cccs4)c3C2c2ccc(Cl)cc2Cl)cc1 (centres undefined) | inconclusive: 39.8 µM [inhibitor, single point] | 
CCOC(=O)Cn1nnnc1C(C(C)C)N(Cc1cc2c(C)cc(C)cc2[nH]c1=O)C1CCCC1 (centres undefined) | inconclusive: 31.6 µM [inhibitor, partial curve, poor fit] | 
Cc1ccc(/C=C/c2onc(C)c2S(=O)(=O)N2CCC(C(=O)N3CCCCC3)CC2)cc1 | inactive | 
Cn1c(SCC(=O)NCC2CCCO2)ncc(C(=O)Nc2ccc(Cl)cc2)c1=O (centres undefined) | inconclusive: 39.8 µM [inhibitor, single point] | 
Cc1ccc(NC(=O)CCCc2c[nH]c3ccccc23)nc1 | inconclusive: 15.8 µM [inhibitor, single point] | 
COC(=O)[C@H]1C[C@@]2(O)CN(S(=O)(=O)c3ccc(C)cc3)C[C@@]2(OC(=O)NC2CCCC2)C[C@H]1C(=O)OC | inactive | 
CCOC(=O)CNS(=O)(=O)c1ccc2c3c(cccc13)C(=O)N2CC | inactive | 
O=C(Nc1cccc(S(=O)(=O)Nc2ccc(Cl)cc2)c1)c1ccc(Cl)nc1 | inconclusive: 39.8 µM [inhibitor, partial curve, poor fit] | 
CC(C)c1nnc(NC(=O)CC(=O)Nc2ccccc2C(=O)O)s1 | inconclusive: 8.91 µM [inhibitor, partial curve] | 
Cc1ccc(-n2[nH]c(C)c(/C=N/N3C(=O)c4cccc5cccc(c45)C3=O)c2=O)cc1 | inconclusive: 39.8 µM [inhibitor, single point] | 
COc1ccc(CCNCC2C(Oc3ccc(Cl)cc3)C(=O)N2c2ccccc2C)cc1OC (centres undefined) | inconclusive: 35.5 µM [inhibitor, partial curve, poor fit] | 
COc1cccc(C2CC(c3ccc(C)cc3)n3nc(N)nc3N2)c1 (centres undefined) | inconclusive: 0.112 µM [inhibitor, full curve, poor fit] | 
CCCCCCN1C[C@@H](n2cc(-c3ccc(F)cc3)nn2)[C@H](O)C[C@@H]1c1ccccc1 | inconclusive: 39.8 µM [inhibitor, single point] | 
O=C(Nc1ccc(Cl)cc1)Nc1ccc(N2CCCC2)c(S(=O)(=O)Nc2ccccc2Cl)c1 | inconclusive: 17.8 µM [inhibitor, partial curve] | 
O=C(Nc1ccc(Cl)c([N+](=O)[O-])c1)ONC1=NCCCCC1 | inactive | 
CC1(C)CC(=O)CC2(C1)NCC(c1ccccc1)c1c2[nH]c2ccccc12 (centres undefined) |  | inactive: 1.58% [at 11.3 µM]
Cc1ccc(NNC(=O)c2ccno2)c(C)c1 | inconclusive: 4.47 µM [inhibitor, partial curve, poor fit] | 
CC(CNC(=O)c1cc(COc2ccc3ncccc3c2)on1)c1ccccc1 (centres undefined) | inconclusive: 22.4 µM [inhibitor, single point] | 
CCOc1ccc(-c2cc3nc(C4CCN(C(=O)OC(C)(C)C)CC4)c(C(=O)Nc4ccc(C)cc4C)cn3n2)cc1 | inactive | 
COc1ccccc1N1CCN(C(=O)c2cc3ccc4ccc(C)[nH]c4c3n2)CC1 | inconclusive: 35.5 µM [inhibitor, single point] | 
Cc1ccc(C(=O)NCCN2CCCC2)cc1 | inactive | 
COC(=O)c1cc(NC(=O)c2cccc([N+](=O)[O-])c2C)ccc1Cl | inconclusive: 20 µM [inhibitor, partial curve, poor fit] | 

SMILES | Potency | activity change, negative = inhibition
Cc1cc(C)cc(NC(=O)CCc2c(C)nc3c4cccnc4nn3c2C)c1 | inconclusive: 10 µM [inhibitor, partial curve, poor fit] | 
CCOc1cc(/C=N/NC(=O)Cn2nc([N+](=O)[O-])cc2C)cc(Br)c1OCc1ccccc1C | inconclusive: 28.2 µM [inhibitor, single point] | 
COc1c2ccc(C(=O)NCc3cc(C(F)(F)F)cc(C(F)(F)F)c3)cc2nn1C | inconclusive: 6.31 µM [inhibitor, partial curve, poor fit] | 
O=C1c2ccccc2C(=O)c2c1oc(C(F)(F)F)c2C(=O)c1ccccc1 | inconclusive: 39.8 µM [inhibitor, single point] | 
COc1ccc(C(CCNCc2ccc(N(C)C)cc2)c2ccccc2)cc1 (centres undefined) | inconclusive: 15.8 µM [inhibitor, partial curve, poor fit] | 
Cc1nc(N)ncc1-c1nc(N2CCOCC2)c2sc(C(C)(C)O)cc2n1 | inconclusive: 19.3 µM [inhibitor, partial curve] | 
COCCCNC(=O)/C=C1\Sc2ccccc2N(Cc2ccccc2F)C1=O | inactive | 
Cc1cccc(Cn2c(=O)c3c(nc4n3CCN4Cc3ccco3)n(C)c2=O)c1 | inconclusive: 39.8 µM [inhibitor, partial curve, poor fit] | 
COc1ccccc1NS(=O)(=O)c1cccc(NC(=O)Nc2ccc(Cl)cc2)c1 | inconclusive: 31.6 µM [inhibitor, single point] | 
Cc1nn(Cc2ccc([N+](=O)[O-])cc2)c(=O)n1N(C)c1ncc(C(F)(F)F)cc1Cl | inactive | 
O=C(N/N=C/c1c(O)ccc2ccccc12)c1ccc(Br)o1 | active: 2.82 µM | 
O=C(NNC(=S)Nc1cccc2ccccc12)c1cccc(Br)c1 | inconclusive: 39.8 µM [inhibitor, single point] | 
O=C(C1CCN(S(=O)(=O)c2cccc3cccnc23)CC1)N1CCN(c2ccc(Cl)cc2)CC1 | inconclusive: 14.1 µM [inhibitor, partial curve] | 
CSc1nc(=NC(C)=O)ss1 | inactive | 
NC1=CC(=O)C(=O)c2ccccc21 | inconclusive: 11.2 µM [inhibitor, partial curve, poor fit] | 
CCCCCCNC(=O)O[C@H]1Cn2c(=O)n(CCCCCC)c(=O)n2[C@@H]2CN(S(=O)(=O)c3ccc(C)cc3)C[C@]12O | inconclusive: 39.8 µM [inhibitor, single point] | 
COc1cccc(-c2c(-c3cc(OC)cc(OC)c3)n(C)c3ccc(-c4ccc5[nH]ccc5c4)cc23)c1 | inactive | 
COc1ccc(Cl)cc1NC(=O)NCC1CCN(Cc2ccccc2F)CC1 | inconclusive: 20 µM [inhibitor, single point] | 
CCCCOc1ccc(-c2c(C(=O)Nc3ccccc3)c(C)[nH]c(=S)c2C#N)cc1 | inactive | 
COc1cc(C#Cc2c(-c3cncn3C)n(C)c3ccc(-c4cnc(N5CCOCC5)nc4)cc23)cc(OC)c1 | inconclusive: 28.2 µM [inhibitor, single point] | 
O=C(NCCC(c1ccccc1)c1ccccc1)c1cccs1 | inactive | 
CCOc1ccc(-n2cc(C(=O)NCc3ccco3)c3cc(OC)c(OC)cc3c2=O)cc1 | inactive | 

SMILES | Potency | activity change, negative = inhibition
Cc1ccc(Cl)cc1-c1cc(C(=O)NCc2ccc(C(F)(F)F)cc2)[nH]n1 | inconclusive: 15.8 µM [inhibitor, partial curve] | 
Cc1cc(C)n(-c2nc(NCCN(C)C)c3c4c(sc3n2)COC(C)(C)C4)n1 | inconclusive: 20 µM [inhibitor, partial curve] | 
Nc1ccn([C@@H]2O[C@H](CO)[C@H](O)C2(F)F)c(=O)n1 | active: 0.217 µM | 
COc1ccc(NC(=O)CSc2n[nH]c(-c3ccccn3)n2)cc1 | inconclusive: 29.9 µM [inhibitor, single point] | 
CCOC(=O)CCCc1sc(N)nc1-c1[nH]c(=O)[nH]c1C | inactive | 
CC1=C(C)CS(=O)N(S(=O)(=O)c2ccc(Cl)cc2)C1 (centres undefined) | inconclusive: 25.1 µM [inhibitor, single point] | 
C[C@H](CO)N1C[C@H](C)[C@@H](CN(C)S(=O)(=O)c2cn(C)cn2)Oc2ccc(NC(=O)Cc3ccccc3)cc2C1=O | inactive | 
O=C(Nc1nc(-c2cc(Cl)sc2Cl)cs1)c1ccc(Br)s1 | inconclusive: 25.1 µM [inhibitor, partial curve, poor fit] | 
O=C(C1CCCN(c2ncnc3c2nc2n3CCCCC2)C1)N1CCN(c2ccc(Cl)cc2)CC1 (centres undefined) | inconclusive: 22.4 µM [inhibitor, single point] | 
CCOc1ccc(Nc2c(S(=O)(=O)c3ccccc3)cnc3ccccc23)cc1 | inconclusive: 31.6 µM [inhibitor, single point] | 
COc1cc(CN2CCCC(CO)(Cc3cccc(Cl)c3)C2)cc(OC)c1O (centres undefined) | inactive | 
Cc1cccc(Cn2ncc(Cl)c(Cl)c2=O)c1 | inconclusive: 39.8 µM [inhibitor, single point] | 
Cc1cc(C)c(-c2csc(NC(=O)/C=C/c3cccs3)n2)c(C)c1 | inconclusive: 39.8 µM [inhibitor, partial curve, poor fit] | 
O=C(Nc1ccc(NC(=O)c2ccc3c(c2)OCCO3)cc1)c1ccccc1 |  | inconclusive: -80.1% [inhibitor]
CCc1ccc(-c2nc(CSCC(=O)N3CCN(c4ccccn4)CC3)c(C)o2)cc1 | inconclusive: 15.8 µM [inhibitor, partial curve] | 
CC(C)C[C@H]1CNC(=S)N1C[C@H]1CCCN1C[C@H](Cc1ccccc1)N1C[C@H](CC(C)C)N(CCc2ccccc2)C1=S | inconclusive: 7.94 µM [inhibitor, full curve] | 
Cc1ccc(C(=O)Nc2nc(-c3ccccn3)cs2)s1 | inconclusive: 11.2 µM [inhibitor, partial curve, poor fit] | 
Fc1ccc2[nH]c3c(Cl)ncnc3c2c1 | inactive | 
CCCc1nc(C)cc(N2CCN(c3ccccc3)CC2)n1 | inconclusive: 14.1 µM [inhibitor, single point] | 
COc1ccc(Cn2c(C(=O)O)c(CNCc3cccs3)c3ccc(C)cc32)cc1 | inconclusive: 15.8 µM [inhibitor, partial curve, poor fit] | 
